Experimental data as given in the supplement of paper PMC3334620.
Whole data set: some 33,000 sequences, median “E-score (-0.5 to 0.5)” near -0.04, cut for the highest 2% near 0.36. Some of the results follow.

molecular target: T1, Hmlalpha2 (UniProt P0CY09); assay: PBM E-score (8-mer binding enrichment) (E-score (-0.5 to 0.5)); higher = stronger / more preferred TF binding; most listed sequences are background and not binding sites; details: protein concentration: 200 nM; construct: GST-full length
T1 sequence: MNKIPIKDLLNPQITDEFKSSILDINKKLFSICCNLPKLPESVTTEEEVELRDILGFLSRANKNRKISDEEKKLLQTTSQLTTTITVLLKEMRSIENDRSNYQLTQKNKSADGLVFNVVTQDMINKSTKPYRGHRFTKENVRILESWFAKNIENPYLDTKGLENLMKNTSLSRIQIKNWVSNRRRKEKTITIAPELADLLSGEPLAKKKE
Method in brief: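 PURExpress in vitro transcription/translation supplied GST-tagged yeast transcription factors, either full-length or DNA-binding domain. Applied at about 100-200 nM to universal all-10-mer Agilent arrays double-stranded by primer extension, the bound protein was detected with fluorescent anti-GST. E-scores, modified Wilcoxon-Mann-Whitney statistics, were given by the Universal PBM Analysis Suite to ungapped eight-base words pooled with their reverse complements after masliner normalisation.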

Row | Sequence | PBM E-score
1 | GTTTTCCA | 0.233
2 | ATGCTCCC | -0.173
3 | ATCGGACG | -0.242
4 | ACTAGCGG | -0.131
5 | GGTGAAGA | -0.202
6 | CAAGGAAA | -0.269
7 | AATCTCGC | 0.132
8 | CTAGCCAG | -0.21
9 | CAGCATTA | 0.109
10 | AAGCACAA | 0.0738
11 | GGCTATAC | 0.0523
12 | AACTTTTG | 0.0612
13 | AGGTGAAC | -0.0916
14 | GAATCCGA | -0.156
15 | GATGTGGA | -0.0421
16 | ACCTAACT | 0.00114
17 | CTTCGTAC | -0.13
18 | ATCATTCC | -0.165
19 | GACCCCCA | -0.381
20 | CCTCAACG | -0.0611
21 | CTACAAAC | 0.172
22 | ACGTGATC | 0.172
23 | ATGTTCGG | 0.0295

Row | Sequence | PBM E-score
24 | CAAACATA | 0.118
25 | AGACCAAA | -0.1
26 | CTATACTA | 0.126
27 | AAGGAGAG | -0.222
28 | GCAATTAA | 0.121
29 | AAACGTAG | 0.205
30 | AAGGACTC | -0.288
31 | AACAGTTG | -0.186
32 | ACCCGCCT | -0.0559
33 | ATTAGCGC | 0.0131
34 | ATCCACTC | 0.00482
35 | TCGAGCCA | -0.0274
36 | AGTGAGGG | -0.316
37 | CGGAAACG | -0.111
38 | CTCCAGTC | -0.29
39 | ACCTTTTG | -0.172
40 | ACGGCATA | 0.0529
41 | GCTATCAC | -0.0124
42 | GTACGCGA | 0.19
43 | TGGCCACA | -0.0398
44 | ACAAATTG | 0.156
45 | CCTGGTTA | -0.0669
46 | ATATCCGG | -0.0407

Row | Sequence | PBM E-score
47 | TCTCAGCA | -0.113
48 | TATTCGGA | 0.121
49 | GAACCGGA | -0.0347
50 | TGGGCGAA | 0.0165
51 | CGACCGAC | -0.00205
52 | AGGATGCA | -0.0473
53 | AGTAATCA | 0.199
54 | ATCCGTTA | 0.214
55 | CAAAGACA | 0.22
56 | GAACGCAC | 0.0864
57 | ACGTCCTA | -0.0289
58 | CCACTCGC | -0.162
59 | TACGCACA | 0.277
60 | CAGTCGGG | -0.0544
61 | CGCTGGGC | -0.206
62 | ACAAATAA | 0.279
63 | CGATCGCA | 0.0423
64 | AGGTCCGC | -0.326
65 | GGACCTGA | -0.235
66 | AAAGCTAA | 0.109
67 | ATGCAGGG | -0.0853
